# Test results as given in the supplement of paper PMC9174493.
# The list shows a part of the results. Single values of this set are uncertain. Values with irradiation are relative to irradiated vehicle.
# Legend:
# A549-Dual [1] = test: NF-kB reporter (SEAP) activity, viability-corrected, relative to vehicle (fold change vs vehicle); higher = more activation of STING-IRF / NF-kB immune response reporter; conditions: 10 µM
# A549-Dual [2] = test: ISRE reporter (Lucia luciferase) activity, viability-corrected, relative to vehicle (fold change vs vehicle); higher = more activation of STING-IRF / NF-kB immune response reporter; conditions: 10 µM
# 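For NF-kB reporter (SEAP) activity, viability-corrected, relative to vehicle in this document: viability correction based on the alamar blue assay, with concentrations leaving 10% survival or less dropped.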
SMILES,NF-kB reporter (A549-Dual [1]; irradiation: 8 Gy/4 fr),NF-kB reporter (A549-Dual [1]; irradiation: none),ISRE reporter (A549-Dual [2]; irradiation: 8 Gy/4 fr),ISRE reporter (A549-Dual [2]; irradiation: none)
Cc1nnc(SCC2=C(C(=O)[O-])N3C(=O)C(NC(=O)Cn4cnnn4)C3SC2)s1.[Na+] (configuration not stated) [Cefazolin Sodium],0.909,0.963,0.955,0.768
CCOc1ccc2ccccc2c1C(=O)NC1C(=O)N2C1SC(C)(C)C2C(=O)[O][Na].O (configuration not stated) [Nafcillin Sodium],0.634,1.48,0.482,0.956
CCN(CC)C(=O)Nc1ccc(OCC(O)CNC(C)(C)C)c(C(C)=O)c1.Cl (configuration not stated) [Celiprolol hydrochloride],0.923,0.966,1.06,0.807
Cl.NC1=NCC2c3ccccc3Cc3ccccc3N12 (configuration not stated) [Epinastine HCl],0.778,0.886,0.837,0.754
O=C1C(CCS(=O)c2ccccc2)C(=O)N(c2ccccc2)N1c1ccccc1 (racemic) [(+/-)-Sulfinpyrazone],0.711,0.571,0.671,0.401
NC1CONC1=O [D-Cycloserine],0.96,0.879,0.936,0.876
COc1ccc(/C=C/C(=O)Nc2ccccc2C(=O)O)cc1OC [Trans-Tranilast],0.856,0.828,0.937,0.733
C=C1/C(=C\C=C2/CCC[C@]3(C)[C@@H]([C@H](C)CCCC(C)C)CC[C@@H]23)C[C@@H](O)C[C@@H]1O [Alfacalcidol],0.41,0.767,0.273,0.574
Oc1cc2c(cc1O)C1c3ccc(O)c(O)c3OCC1(O)C2 (configuration not stated) [Hematoxylin],1.13,0.916,0.99,0.565
CC1=CCC(C(C)(C)O)CC1 (stereo not drawn) [α-Terpineol],1.08,0.722,0.946,0.695
CC(=O)c1ccccc1 [Acetophenone],0.753,0.688,1.01,0.705
CC(CN1CC(=O)NC(=O)C1)N1CC(=O)NC(=O)C1 (configuration not stated) [Dexrazoxane],1.14,1.61,0.929,3.75
CC(O)CO.CCOc1ccc(Cc2cc(C3OC(CO)C(O)C(O)C3O)ccc2Cl)cc1.O (configuration not stated) [Dapagliflozin propanediol monohydrate],0.939,0.962,0.838,0.941
CS(=O)(=O)Nc1ccc([N+](=O)[O-])cc1Oc1ccccc1 [Nimesulide],0.604,0.759,0.515,0.7
CCOC(=O)[N-]c1c[n+](N2CCOCC2)no1 [Molsidomine],0.797,0.935,0.775,0.66
CC1CC(C(=O)O)C2CCC3(C)C(=CCC4C5(C)CCC(O)C(C)(C)C5CCC43C)C2C1C (configuration not stated) [Ursolic Acid],2.94,1.04,1.28,2.05
Cl.NCC(=O)CCC(=O)O [5-Aminolevulinic acid HCl],1.18,1.16,1.03,1.16
COC(=O)C1=C(C)NC(C)=C(C(=O)OCCN2CCN(C(c3ccccc3)c3ccccc3)CC2)C1c1cccc([N+](=O)[O-])c1.Cl.Cl (configuration not stated) [Manidipine 2HCl],0.579,1.26,0.628,1.68
CC(O)C(=O)O.CCOc1ccc2nc3cc(N)ccc3c(N)c2c1.O [Ethacridine lactate monohydrate],1.08,1.93,0.375,2.43
COC(=O)NC(C(=O)NC(Cc1ccccc1)C(O)CN(Cc1ccc(-c2ccccn2)cc1)NC(=O)C(NC(=O)OC)C(C)(C)C)C(C)(C)C.O=S(=O)(O)O (configuration not stated) [Atazanavir Sulfate],0.688,0.88,0.645,0.799
OCC(CO)NC1CC(O)(CO)C(O)C(O)C1O (configuration not stated) [Voglibose],1,0.746,0.788,0.749
CCOc1cc(N)c(Cl)cc1C(=O)NCC1CN(Cc2ccc(F)cc2)CCO1 (configuration not stated) [Mosapride],0.748,0.632,0.947,0.966
C=C(C)C1CC=C(C)CC1 [(S)-(-)-Limonene],1.05,0.749,1.19,0.878
O=C(O)/C=C/c1ccc(O)cc1 [p-Coumaric Acid],0.798,0.596,0.755,0.448
O=C(O)CCC(=O)O [Succinic acid],0.617,0.813,0.774,0.678
CC(C)=C1CCC(C)CC1=O (configuration not stated) [Pulegone],0.598,0.983,0.0545,0.379
C/C(=C\C(=O)OCCCCCCCCC(=O)O)CC1OCC(CC2OC2C(C)C(C)O)C(O)C1O (configuration not stated) [Mupirocin],0.825,0.856,0.869,0.811

SMILES,NF-kB reporter (A549-Dual [1]; irradiation: 8 Gy/4 fr),NF-kB reporter (A549-Dual [1]; irradiation: none),ISRE reporter (A549-Dual [2]; irradiation: 8 Gy/4 fr),ISRE reporter (A549-Dual [2]; irradiation: none)
CC/C=C\C/C=C\C/C=C\C/C=C\C/C=C\CCCC(=O)O [Eicosapentaenoic Acid],0.659,0.501,0.663,0.512
COc1ccc2ccc(=O)oc2c1CC=C(C)C [Osthole],0.996,0.861,1,0.824
CCN(CC)CCNC(=O)c1cc(Cl)c(N)cc1OC [Metoclopramide],0.969,1.03,0.744,0.601
N[C@@H](CC(=O)O)C(=O)O [L-aspartic Acid],0.971,0.704,1.01,0.642
COc1ccc2cc3[n+](cc2c1OC)CCc1cc2c(cc1-3)OCO2 [Berberine],0.591,1.3,0.207,0.85
"Oc1cc(O)c2c(c1)OC(c1ccc(O)c(O)c1)C(O)C2 (single isomer, unassigned; (+)) [(+)-Catechin hydrate]",0.863,0.534,0.782,0.618
O=C1CCc2ccc(OCCCCN3CCN(c4cccc(Cl)c4Cl)CC3)cc2N1 [Aripiprazole],0.744,0.823,0.773,1.11
O=C1/C(=C2\Nc3ccc(S(=O)(=O)[O-])cc3C2=O)Nc2ccc(S(=O)(=O)[O-])cc21.[Na+].[Na+] [Indigo carmine],0.984,0.747,0.955,0.561
Nc1c(Br)cc(Br)cc1CNC1CCC(O)CC1 (configuration not stated) [Ambroxol],0.877,0.614,0.963,0.509
"NCC(O)c1ccc(O)c(O)c1 (single isomer, unassigned; (-)) [(-)-Norepinephrine]",1.01,1.18,0.986,0.973
C=CC1CC1(NC(=O)C1CC2CN1C(=O)C(C(C)(C)C)NC(=O)OC1CC1CCCCCc1nc3ccc(OC)cc3nc1O2)C(=O)NS(=O)(=O)C1CC1 (configuration not stated) [Grazoprevir],0.937,1.26,1.21,3.79
NCC1OC(OC2C(CO)OC(OC3C(O)C(N)CC(N)C3OC3OC(CO)C(O)C(O)C3N)C2O)C(N)C(O)C1O.O=S(=O)(O)O (configuration not stated) [Paromomycin Sulfate],0.762,0.92,0.796,0.933
CC(=O)Oc1cc(C(F)(F)F)ccc1C(=O)O [Triflusal],1.1,0.779,1.05,0.722
Nc1ncnc2c1ncn2C1OC(CO)C(O)C1O (configuration not stated) [Vidarabine],0.71,1.03,0.758,0.983
Cc1cc(O)cc(C)c1Cl [Chloroxylenol],0.942,1.26,0.813,1.19
Cc1ccsc1C(=CCCN1CCCC(C(=O)O)C1)c1sccc1C.Cl (configuration not stated) [Tiagabine hydrochloride],0.729,1.19,0.851,0.955
COC(=O)N/N=C/c1c[n+]([O-])c2ccccc2[n+]1[O-] [Carbadox],0.638,0.593,0.154,0.126
CNC1C(OC2C(OC3C(O)C(O)C(NC(=N)N)C(O)C3NC(=N)N)OC(C)C2(O)CO)OC(CO)C(O)C1O.CNC1C(OC2C(OC3C(O)C(O)C(NC(=N)N)C(O)C3NC(=N)N)OC(C)C2(O)CO)OC(CO)C(O)C1O.O=S(=O)(O)O.O=S(=O)(O)O.O=S(=O)(O)O (configuration not stated) [Dihydrostreptomycin sulfate],0.797,0.84,0.907,1.02
CCN1C(=O)NC(c2ccccc2)C1=O (configuration not stated) [Ethotoin],0.705,1.01,0.62,0.595
COC(=O)C1=C(C)NC(C)=C(C(=O)OC(C)C)C1c1cccc2nonc12 (configuration not stated) [Isradipine],0.514,0.68,0.522,0.627
CO/N=C(\C(=O)NC1C(=O)N2C(C(=O)OCOC(=O)C(C)(C)C)=C(/C=C\c3scnc3C)CSC12)c1csc(N)n1 (configuration not stated) [Cefditoren Pivoxil],0.639,0.984,0.639,0.791
CC(C)Oc1ccc2c(=O)c(-c3ccccc3)coc2c1 [Ipriflavone (Osteofix)],0.832,0.83,0.835,0.941
Cl.Cl.Cl.Cl.NCCCNCCCCNCCCN [Spermine Tetrahydrochloride],0.855,0.684,0.879,0.585
CCCCCCCC/C=C\CCCCCCCC(=O)OCC [Ethyl Oleate],0.673,0.575,0.687,0.431
O=C(O)c1cccnc1Nc1cccc(C(F)(F)F)c1 [Niflumic acid],0.803,0.955,0.625,0.606
CC1OC(O)C(O)C(O)C1O.O [L-Rhamnose monohydrate],0.632,0.601,0.562,0.607
